From paper PMC4336329 (PLoS ONE, 2015)
Screen size: about 310,000 compounds; about 14,000 (4.5%) showed an effect of 50% or more. Effects have a minus sign here. The list shows a part of the results.

Molecular target: human ether-à-go-go-related gene (hERG) potassium channel (human, UniProt Q12809)
Assay: primary screen, population patch clamp on CHO cells stably expressing hERG
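Note: peak tail current of the secondary pulse compared with the same well before compound.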

human ether-à-go-go-related gene (hERG) potassium channel, sequence (Q12809 whole entry, looked up): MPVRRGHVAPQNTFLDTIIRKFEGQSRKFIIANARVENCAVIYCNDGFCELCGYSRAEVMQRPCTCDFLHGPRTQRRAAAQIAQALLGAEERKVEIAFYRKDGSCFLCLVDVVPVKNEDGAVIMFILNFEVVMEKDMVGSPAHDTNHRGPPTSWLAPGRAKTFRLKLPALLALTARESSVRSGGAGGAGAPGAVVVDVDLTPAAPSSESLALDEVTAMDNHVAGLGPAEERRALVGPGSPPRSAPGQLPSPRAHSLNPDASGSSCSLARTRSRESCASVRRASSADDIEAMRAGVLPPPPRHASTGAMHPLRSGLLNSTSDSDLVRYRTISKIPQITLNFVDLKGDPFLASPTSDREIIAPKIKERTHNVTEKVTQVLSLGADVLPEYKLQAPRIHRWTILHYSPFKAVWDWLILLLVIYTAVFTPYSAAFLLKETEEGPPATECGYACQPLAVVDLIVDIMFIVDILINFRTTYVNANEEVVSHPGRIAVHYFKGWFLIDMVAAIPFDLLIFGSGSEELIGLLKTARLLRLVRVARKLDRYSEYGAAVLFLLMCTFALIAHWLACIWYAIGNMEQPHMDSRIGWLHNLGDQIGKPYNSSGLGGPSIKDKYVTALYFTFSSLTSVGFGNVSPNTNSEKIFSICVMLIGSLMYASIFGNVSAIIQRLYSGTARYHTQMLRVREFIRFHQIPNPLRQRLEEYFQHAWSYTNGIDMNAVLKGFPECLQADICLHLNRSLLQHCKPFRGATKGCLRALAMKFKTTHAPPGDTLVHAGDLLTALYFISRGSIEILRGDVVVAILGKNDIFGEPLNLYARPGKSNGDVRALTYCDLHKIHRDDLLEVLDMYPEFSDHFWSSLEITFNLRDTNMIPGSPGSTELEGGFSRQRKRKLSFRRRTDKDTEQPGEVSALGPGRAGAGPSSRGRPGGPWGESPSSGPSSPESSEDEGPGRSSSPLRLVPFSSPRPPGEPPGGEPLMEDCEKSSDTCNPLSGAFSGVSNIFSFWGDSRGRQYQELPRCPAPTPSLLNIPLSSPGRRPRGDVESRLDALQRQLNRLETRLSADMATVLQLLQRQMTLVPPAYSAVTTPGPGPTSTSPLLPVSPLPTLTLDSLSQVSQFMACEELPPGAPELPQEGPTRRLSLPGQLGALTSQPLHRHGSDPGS

| SMILES | hERG current change (%, negative = inhibition) at 10uM |
| --- | --- |
| COc1cc(C(=O)N2CCC(c3nc(-c4cccnc4)no3)CC2)cc(OC)c1OC | -8.08% |
| O=c1ccc(NS(=O)(=O)c2ccc(Cl)cc2)cn1Cc1ccc(Cl)c(Cl)c1 | 8.48% |
| Nc1c(O)cccc1C(=O)O | 11.2% |
| O=C1[C@H]2[C@H](ON3CCCC[C@H]23)C(=O)N1c1ccc(Cl)cc1 | 16.3% |
| CC(Oc1ccc(Cl)cc1)c1ccnn1S(=O)(=O)c1ccccc1 (stereo not shown) | 5.02% |
| O=C(/C=C/c1ccccc1)c1ccoc1 | -6.57% |
| CCOCc1nnc(NC(=O)CSc2ccc(C)cc2)s1 | 6.61% |
| CCCNC(=O)c1ccccc1N1CCN(CCCCN2C(=O)C3CCCCN3C2=O)CC1.Cl.O (stereo not shown) | -33.5% |
| Cc1cccc(/C=C/C(=O)c2ccc(NC3=NCCCS3)cc2)c1 | 4.59% |
| CC(=O)Nc1cc(C(=O)CSc2nnc(C3CC3)n2C2CC2)ccc1O | 2.93% |
| COC(=O)c1ccccc1NC(=O)c1cn(-c2ccc(C)c(C)c2)c(=O)c2ccccc12 | 24.8% |
| CCOc1cc(/C=N/NC(=O)COc2ccc(C)cc2)ccc1OC(=O)c1cccs1 | -4.03% |
| CCc1ccccc1NC(=O)CN(C)C(=O)CSc1nnc(Nc2cccc(C)c2C)s1 | -3.55% |
| NNC(=O)COc1ccccc1F | 6.85% |
| COc1ccc(COC(=O)N/N=C(\C)CC(=O)Nc2ccc(Cl)cn2)cc1 | -30.7% |
| CCOC(=O)c1sc(NC(=O)COc2ccc3c(c2)OCO3)nc1C | 7.47% |
| O=C(CCS(=O)(=O)Cc1cccc(Cl)c1)NCCc1ccccc1 | 15.2% |
| CC(OC(=O)C1CC1)C(=O)Nc1ccc([N+](=O)[O-])cc1Cl (stereo not shown) | -10.1% |
| CC12CCC(C(=O)Nc3cc(Cl)ccc3Cl)(C/C1=N\O)C2(C)C (stereo not shown) | -19% |
| CC(C)c1ccc(CCNC(=O)c2cccc(S(=O)(=O)N3CCN(C)CC3)c2)cc1 | -26% |
| O=[N+]([O-])c1ccc2c(c1)C=C1CCCCC1(N1CCCC1)O2 (stereo not shown) | 2.82% |
| CC1=NOC(=O)/C1=C\c1ccc(-c2cccc(Cl)c2)o1 | 10.4% |

| SMILES | hERG current change (%, negative = inhibition) at 10uM |
| --- | --- |
| COc1cc2c(cc1OC)CN(C(=O)CSc1nnc(C)s1)CC2 | 20.7% |
| Cc1ccccc1NS(=O)(=O)c1ccc(NS(=O)(=O)c2cccs2)cc1 | 2.87% |
| Cc1ccc2c(C)nc(Nc3nc(CSc4nc5ccccc5[nH]4)cc(=O)[nH]3)nc2c1 | -5.41% |
| CCCCCCCN(C(=O)CCl)c1ccccc1C | 1.78% |
| COc1ccc(-c2csc(NC(=O)c3ccccc3Br)c2C(=O)O)cc1 | 13.2% |
| COc1ccccc1CN(CC(=O)NCC1CCCO1)C(=O)CNS(=O)(=O)c1ccc(C)cc1 (stereo not shown) | -29.6% |
| CCOC(=O)c1nn(-c2ccc(F)cc2)c2nc(Nc3ccccc3)cc(=O)n12 | 6.17% |
| O=C(CSc1ccccn1)N/N=C/c1c[nH]c2ccccc12 | 13.6% |
| O=C(CC(C(=O)O)P(=O)(c1ccccc1)c1ccccc1)c1ccccc1 (stereo not shown) | 24.3% |
| N#Cc1ccsc1NC(=O)CN(Cc1ccccc1)Cc1ccccc1 | 3.65% |
| COCCN(C(=O)CSc1nc2ccc(Cl)cc2[nH]1)c1c(N)n(Cc2ccccc2)c(=O)[nH]c1=O | -7.02% |
| COc1ccc(-c2nc(SC(C)C(=O)NCC3CCCO3)n[nH]2)cc1 (stereo not shown) | -8.66% |
| CCOC(=O)N1CCC(N2C(=O)c3ccccc3C2Nc2ccc(S(=O)(=O)N3CCOCC3)cc2)CC1 (stereo not shown) | -16.7% |
| CCOC(=O)c1sc(N)c(C#N)c1CSc1nnc(C2CCCCC2)n1N | -1.65% |
| Cc1c(C=C2C(=O)NC(=O)NC2=O)c(=O)n(-c2ccccc2)n1C | 19.9% |
| COc1ccc(C(=O)NC2CCCCCC2)cc1S(=O)(=O)N1CCCC1 | 5.55% |
| Cc1nnsc1C(=O)N1CCCC(Nc2ccc(C(C)C)cc2)C1 (stereo not shown) | -13.4% |
| O=C(NCC1OCCCN1S(=O)(=O)c1cc(F)ccc1F)C(=O)NC1CCCC1 (stereo not shown) | -3.09% |
| CCNC(=S)N(CCN(C)C)Cc1cc2cc(OCC)ccc2[nH]c1=O | -23.3% |
| Cn1c(SCc2ccccc2)nc(C(F)(F)F)cc1=O | -33.2% |
| O=C(CCn1cnc2ccccc2c1=O)Nc1nc2c(s1)CCCC2 | 7.92% |
| Cc1ccc(CNC(=O)CCNS(=O)(=O)c2cccc3nsnc23)cc1 | -4.7% |

| SMILES | hERG current change (%, negative = inhibition) at 10uM |
| --- | --- |
| CN(Cc1ccon1)C(=O)CC1C(=O)NCCN1CC1CCCCC1 (stereo not shown) | 11.6% |
| Cc1cccc(C)c1NC(=O)COC(=O)CCc1c[nH]c2ccccc12 | 6.23% |
| Cc1nc2ccc(F)cc2cc1C(=O)Nc1ccc(Cl)c(Cl)c1 | 20.6% |
| CC1CCCC(C)N1C(=O)COc1ccc(C(=O)Nc2ccccc2N2CCOCC2)cc1 (stereo not shown) | -20.1% |
| Cc1ccc(CS(=O)(=O)CCC(=O)NCCc2ccccc2)cc1 | 11.8% |
| COC(=O)C1=C(C)NC(=S)NC1c1sccc1C (stereo not shown) | 8.98% |
| CC1(c2ccccc2)NC(=O)N(CC(=O)NCc2cccc(Cl)c2)C1=O (stereo not shown) | -10.6% |
| COc1ccccc1NS(=O)(=O)c1cccc(C(=O)NNC(=O)c2ccc(NC(C)=O)cc2)c1 | 10.2% |
| Cn1c(=O)[nH]c(=O)c2c1nc(NCCCO)n2CCCc1ccccc1 | -5.36% |
| COCCNC(=O)c1ccc2c(=O)n(Cc3ccco3)c(SCC(=O)NC3CCCC3)nc2c1 | -45.2% |
| Cc1[nH]c(=O)nc(SCc2ccc(Cl)c(Cl)c2)c1C#N | 13.5% |
| O=C(COc1ccc(Cl)cc1)Nc1cccc(-c2ccc(N3CCOCC3)nn2)c1 | 0.684% |
| Cc1ccc(NC(=O)c2cc3cccc([N+](=O)[O-])c3[nH]2)cc1 | 9.96% |
| COc1ccc(CCC(C)NC2CCCCCCC2)cc1 (stereo not shown) | -31.2% |
| Oc1ccc(F)cc1-c1cc(-c2ccc3c(c2)OCCO3)n[nH]1 | 17.8% |
| Cn1nnc2cc(C(=O)Nc3cccnc3)ccc21 | 4.88% |
| Cc1[nH]nc2c1/C(=N\O)CCC2 | 0.346% |
| COc1ccccc1N1CCN(Cc2cnc(-c3ccccc3)[nH]2)CC1 | -29.8% |
| O=C(O)C(=O)O.c1ccc(-c2ccccc2OCCOCCN2CCOCC2)cc1 | 6.15% |
| CCCCN1C(=O)CCC(C(=O)O)C1c1ccc([N+](=O)[O-])cc1 (stereo not shown) | 18.4% |
| CCOc1ccc(CN(C)C(=O)[C@H](Cc2ccccc2)NC(=O)OCc2ccccc2)cc1OC | -15.7% |
| C=CCNC(=S)Nc1cccc2[nH]ncc12 | 9.04% |

| SMILES | hERG current change (%, negative = inhibition) at 10uM |
| --- | --- |
| COCCn1c(SCC(=O)c2c(N)n(C3CC3)c(=O)[nH]c2=O)nnc1-c1ccc(Cl)cc1 | 13.6% |
| CCCN(Cc1nnc(-c2cccs2)o1)C(=O)c1cccc(S(=O)(=O)N2CCOCC2)c1 | -25.3% |
| COc1ccc(Cc2nnc(CCc3ccccc3)s2)cc1 | -3.78% |
| CNc1ccccc1C(C)(C)c1cc(-c2cccc(Br)c2)no1 | -3.29% |
| COc1cc2c(cc1OC)C(c1cccnc1)CC(=O)N2 (stereo not shown) | -18.2% |
| CCCn1c(N)c(C(=O)CSc2nc3ccccc3n2CCC#N)c(=O)n(C)c1=O | 4.46% |
| Nc1nonc1-n1nnc(C(=O)N/N=C/c2ccncc2)c1CSc1ccccc1 | -1.76% |
| CCN1CCN(c2nc3ccccn3c(=O)c2/C=C(\C#N)S(=O)(=O)c2ccccc2)CC1 | -42.3% |
| CCN(CC)C(=O)Cn1nc(C)c2ccccc2c1=O | 16.1% |
| O=C(CO/N=C/c1ccccc1OC(F)F)NC1CCCC1 | -13.7% |
| COc1ccc(/C=N/NC(=O)c2ccc(COc3ccccc3Cl)o2)cc1 | 2.39% |
| O=C(CSc1nnc(NC(=O)c2c(F)cccc2F)s1)NCc1ccco1 | -6.47% |
| COc1ccc(S(=O)(=O)n2nc(C)c(S(=O)(=O)N3CCOCC3)c2C)cc1 | 19.4% |
| COc1ccc(S(=O)(=O)Nc2c(C(=O)O)[nH]c3ccccc23)cc1OC | -11.8% |
| O.[I-].c1ccc2[nH]c(-c3cc[nH+]c4ccccc34)nc2c1 | -12.6% |
| O=Cc1ccccc1OCc1nnsc1Cl | 12.8% |
| O=C(Nc1nc2ccccc2s1)C1CC(=O)N(c2ccc(Cl)cc2)C1 (stereo not shown) | 4.35% |
| Cc1nn(C)c2c(=O)c(=O)c2n(C)[nH]1 | 18% |
| CSc1nc(-c2ccco2)nn1C(=O)c1ccco1 | 11.7% |
| CCOc1ccc(-c2cc(C(=O)N3CCN(c4ccccn4)CC3)c3ccccc3n2)cc1 | 2.79% |
| CC1(C)Cc2c(sc(NC(=O)c3ccc(S(=O)(=O)N4CCCCCC4)cc3)c2C#N)C(C)(C)N1 | -65.8% |
| CN(C)CC(=O)Nc1ccc(S(N)(=O)=O)cc1 | 14% |
